Reference: PubChem BioAssay AID2528 (National Center for Advancing Translational Sciences (NCATS), 2010)
Values joined by “and” are separate entries in the source; they are usually repeats but may differ in a detail not shown here. Equal entries are not always repeated. About 700 (0.2%) of roughly 350,000 compounds were called active. Inconclusive means that the source gave no clear call. Such entries were picked first, then a sample of the others. The call rests on the fitted dose curve; in most records, active means well fitted inhibition curve with a large enough effect; inconclusive means small, poorly fitted or top-dose-only effect; inactive means flat fitted curve, though single readings scatter. Potencies beside an inconclusive call are fits to weak or partial responses and may not hold up. Some structures have more than one record in an assay (separate samples or runs), and their calls can disagree.
Further: nearly all actives have a fitted effect of over 35% in size.
Potency means the concentration at half of the fitted maximal effect; tags describe the fitted curve by direction and shape.
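Wherever activity change, negative = inhibition is given: plate controls were vehicle for no effect and no enzyme for full effect.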

Each molecule was assayed against RecQ-like DNA helicase BLM (Homo sapiens) (UniProt P54132) (assay: qHTS Assay for Inhibitors of Bloom's syndrome helicase (BLM)). Settings: recombinant BLM DNA unwinding, fluorescence dequenching; series mostly up to 56.1 µM; activity change, negative = inhibition: at the top concentration.
Chain of UniProt P54132 (P54132 whole entry, looked up): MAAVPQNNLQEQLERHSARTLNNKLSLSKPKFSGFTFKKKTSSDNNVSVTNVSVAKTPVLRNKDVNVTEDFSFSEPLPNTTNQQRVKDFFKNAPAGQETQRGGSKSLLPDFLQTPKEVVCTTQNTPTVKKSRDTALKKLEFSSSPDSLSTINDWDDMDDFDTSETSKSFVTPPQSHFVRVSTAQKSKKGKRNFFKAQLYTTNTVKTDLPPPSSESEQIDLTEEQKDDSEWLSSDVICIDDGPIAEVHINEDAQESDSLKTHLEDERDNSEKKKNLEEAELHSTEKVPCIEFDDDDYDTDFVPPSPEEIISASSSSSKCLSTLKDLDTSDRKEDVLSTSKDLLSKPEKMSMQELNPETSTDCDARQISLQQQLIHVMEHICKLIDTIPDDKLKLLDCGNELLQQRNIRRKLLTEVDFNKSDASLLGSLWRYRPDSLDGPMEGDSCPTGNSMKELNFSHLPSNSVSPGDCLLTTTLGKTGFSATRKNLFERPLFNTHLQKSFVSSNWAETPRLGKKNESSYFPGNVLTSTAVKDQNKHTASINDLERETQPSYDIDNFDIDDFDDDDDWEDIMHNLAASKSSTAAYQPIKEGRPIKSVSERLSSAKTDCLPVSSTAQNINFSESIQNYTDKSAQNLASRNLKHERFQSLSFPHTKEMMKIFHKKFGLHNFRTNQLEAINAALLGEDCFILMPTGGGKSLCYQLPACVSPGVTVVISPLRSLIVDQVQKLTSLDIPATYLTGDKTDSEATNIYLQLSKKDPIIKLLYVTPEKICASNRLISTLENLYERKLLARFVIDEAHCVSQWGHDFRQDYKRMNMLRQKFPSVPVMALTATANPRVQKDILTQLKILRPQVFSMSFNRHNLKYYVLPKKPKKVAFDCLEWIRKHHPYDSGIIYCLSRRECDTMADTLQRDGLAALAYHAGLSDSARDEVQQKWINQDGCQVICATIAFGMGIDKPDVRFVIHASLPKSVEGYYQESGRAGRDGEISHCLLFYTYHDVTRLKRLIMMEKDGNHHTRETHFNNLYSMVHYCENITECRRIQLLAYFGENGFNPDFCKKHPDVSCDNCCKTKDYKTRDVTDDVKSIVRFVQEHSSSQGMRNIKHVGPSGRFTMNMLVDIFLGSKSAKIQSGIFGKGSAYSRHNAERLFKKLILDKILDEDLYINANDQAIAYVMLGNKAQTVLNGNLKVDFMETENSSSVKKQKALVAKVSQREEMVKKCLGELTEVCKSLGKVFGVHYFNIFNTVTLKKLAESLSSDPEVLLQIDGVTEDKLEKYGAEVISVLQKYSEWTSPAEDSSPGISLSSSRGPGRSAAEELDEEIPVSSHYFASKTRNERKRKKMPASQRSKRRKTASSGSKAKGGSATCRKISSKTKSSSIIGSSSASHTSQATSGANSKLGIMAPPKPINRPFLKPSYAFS
For `C=CC1=C2C=C(C3CC3)N(C3CCCCC3)C=C2C(=O)C(C)(OC(=O)c2ccco2)C1=O` (centres undefined), the activity change, negative = inhibition was inactive: -14.8% [at 12.4 µM]. In the case of `COc1cccc(NC(=O)Cn2cc(C(=O)c3ccc(C)cc3)c(=O)c3cc(OC)ccc32)c1`, the Potency is reported as inconclusive: 28.2 µM [inhibitor, single point]. `CN1CCN(Cc2cc(COCc3ccccc3)c3cccnc3c2O)CC1` was tested, and the “activity change, negative = inhibition” value was inactive: -10.5%. For `O=C(N/N=C/c1ccc(Sc2ccccn2)o1)c1cc2ccccc2cc1O`, the Potency was inconclusive: 14.1 µM [inhibitor, partial curve]. In the case of `O=C(c1ccc(Nc2nccc(-c3cc4ccccc4s3)n2)cc1)N1CCC(N2CCCC2)CC1`, the Potency is reported as inconclusive: 35.5 µM [inhibitor, single point]. With `Cc1cc2oc(C(=O)Nc3cccc(-c4nc5ccccc5o4)c3)c(C)c2cc1C` the “activity change, negative = inhibition” value was inactive: 1.33%. In the case of `Cc1[nH][nH]c(=O)c1C(c1ccc(-c2ccccc2C(=O)O)o1)c1c(C)[nH][nH]c1=O`, the Potency is reported as inconclusive: 25.1 µM [inhibitor, single point]. `CCn1c(SCC(=O)NCc2ccco2)nnc1C(C)C` was tested, and the “activity change, negative = inhibition” value was inactive: 1.01%. In the case of `COC(=O)c1ccc(OCC(=O)c2cccc(OC)c2)cc1`, the Potency is reported as inconclusive: 39.8 µM [inhibitor, single point]. In the case of `N#Cc1c(-c2ccccc2)cc(-c2ccco2)c(C#N)c1N`, the Potency is reported as inconclusive: 28.2 µM [inhibitor, partial curve]. In the case of `CCCCCn1c(=O)[nH]c2cc(C(=O)N3CCN(c4cccc(Cl)c4)CC3)ccc2c1=O`, the “activity change, negative = inhibition” value is reported as inactive: -0.645%. With `Cc1cccc(NC(=O)COc2ccc(/C=C\c3[nH]c(=O)[nH]c(=O)c3[N+](=O)[O-])cc2)c1` the Potency was inconclusive: 35.5 µM [inhibitor, single point]. With `CCOc1ccccc1NC(=O)Nc1ccc2nc(N3CCN(C)CC3)cc(C)c2c1` the Potency was inconclusive: 31.6 µM [inhibitor, single point]. `COc1cc(-c2cc(=O)c3c(O)c(OC)c(OC)c(O)c3o2)ccc1O` was tested, and the “activity change, negative = inhibition” value was inactive: -8.61%. For `COc1ccc(/C=N/NC(=O)Cn2cnc3c2c(=O)n(C)c(=O)n3C)c(OC)c1OC`, the “activity change, negative = inhibition” value was inactive: -1.02%. In the case of `O=c1oc2c3c4c(cc2s1)CCCN4CCC3`, the Potency is reported as inconclusive: 15.8 µM [inhibitor, partial curve]. For `CCCCCCCCCCCCCC[n+]1ccc(C)cc1`, the “activity change, negative = inhibition” value was inactive: -10.6%. In the case of `Cc1cccc(NC(=O)c2cc3c(=O)n4ccccc4nc3s2)c1`, the Potency is reported as inconclusive: 17.8 µM [inhibitor, partial curve]. In the case of `CCOc1ccc(C(=O)N/N=C/c2cc(Cl)ccc2[N+](=O)[O-])cc1`, the Potency is reported as active: 11.2 µM. With `CCCCNc1nc(C)nc2c1nc(-c1ccccc1)n2C1CCN(Cc2ccccc2)C1` (centres undefined) the “activity change, negative = inhibition” value was inactive: -8.9%. In the case of `CCOc1cccc2cc(-c3nnc(NCc4ccc5c(c4)OCO5)s3)c(=O)oc12`, the Potency is reported as inconclusive: 10 µM [inhibitor, partial curve]. `O=[N+]([O-])c1ccc2nc(SCc3cn4cc(Cl)ccc4n3)[nH]c2c1` was tested, and the Potency was inconclusive: 39.8 µM [inhibitor, single point]. With `O=C(O)c1ccccc1-c1c2ccc(=O)cc-2oc2cc(O)ccc12` the Potency was active: 31.6 µM. For `COn1cnnc1-c1ccccc1`, the “activity change, negative = inhibition” value was inactive: 0.0186%. In the case of `CC[n+]1c(/C=C/C=C/N(C(C)=O)c2ccccc2)sc2cc(OC)ccc21`, the Potency is reported as inconclusive: 17.8 µM [inhibitor, partial curve]. In the case of `COc1ccccc1-c1cc(-c2ccc(O)cc2)nc(N)c1C#N`, the Potency is reported as active: 31.6 µM. In the case of `O=C(Nc1cccc(Cl)c1)OCC#CCCl`, the Potency is reported as active: 28.2 µM. In the case of `Nc1ccc(N2CCOCC2)c2nonc12`, the Potency is reported as active: 31.6 µM. `CC(=O)C(C(C)=O)C1(O)C(=O)c2ccccc2C1=O` was tested, and the Potency was inconclusive: 25.1 µM [inhibitor, single point]. With `O=C1NC(=Nc2ccccc2)S/C1=C\C=C\c1ccco1` the Potency was active: 12.6 µM. `Cc1cc(C(=O)Cn2cnc3cc([N+](=O)[O-])ccc3c2=O)c(C)n1CC1CCCO1` (centres undefined) was tested, and the Potency was inconclusive: 39.8 µM [inhibitor, single point]. For `O=c1ccc2c(-c3ccccc3)c3ccc(O)cc3oc-2c1`, the “activity change, negative = inhibition” value was inactive: -16.2%. With `O=C(O)c1ccc(-c2ccc(/C=c3/sc4nc5ccccc5n4c3=O)o2)cc1Cl` the Potency was inconclusive: 28.2 µM [inhibitor, single point]. In the case of `NS(=O)(=O)c1ccc(NC(=O)c2cccc(N3C(=O)c4ccccc4C3=O)c2)cc1`, the Potency is reported as inconclusive: 11.2 µM [inhibitor, partial curve]. `O=C1NN(c2ccccc2)C(=O)/C1=C/c1ccc(Sc2cccc3ccccc23)o1` was tested, and the Potency was inconclusive: 22.4 µM [inhibitor, single point]. For `CC(C)(C)NC(=O)NC(=O)CSc1nnc(COc2ccccc2Cl)o1`, the “activity change, negative = inhibition” value was inactive: -10.8%. `COC(=O)c1cc(Cl)ccc1NC(=O)CSc1ncc(S(=O)(=O)c2ccc(Br)cc2)c(=O)[nH]1` was tested, and the Potency was inconclusive: 39.8 µM [inhibitor, single point]. For `COc1ccc(S(=O)(=O)/N=C2\C=C(Nc3ccc(O)cc3)C(=O)c3ccccc32)cc1`, the Potency was inconclusive: 28.2 µM [inhibitor, partial curve]. In the case of `CN(C)CCCNCCCNC(=O)c1ccco1`, the “activity change, negative = inhibition” value is reported as inactive: 0.969%. `NC(=O)N=Nc1c2[nH]c3ccccc3nc-2c2ccccc12` was tested, and the “activity change, negative = inhibition” value was inactive: 4.41%. `Nc1ccc2ncccc2c1N` was tested, and the Potency was inconclusive: 2.51 µM [inhibitor, full curve]. In the case of `Fc1ccc(N2N=C(c3cccs3)CC2c2ccccc2)cc1` (centres undefined), the “activity change, negative = inhibition” value is reported as inactive: -10.8%. `CC1CC1C(=O)Nc1nc(-c2cccs2)c(-c2cccs2)s1` (centres undefined) was tested, and the Potency was inconclusive: 25.1 µM [inhibitor, single point]. `Cc1cc(N2CCN(c3ncccn3)CC2)nc2c(C)cccc12` was tested, and the Potency was inconclusive: 15.8 µM [inhibitor, partial curve]. `C[c-]1[c-](C)[c-](C)[c-](C)[c-]1C.[Fe].c1cc2nccc(N3CCCC3)[c-]2c1` (centres undefined) was tested, and the Potency was inconclusive: 2.82 µM [inhibitor, full curve] and inconclusive: 5.01 µM [inhibitor, single point]. For `CC1=Nc2ccccc2/C1=C\c1nc(-c2ccc(C(F)(F)F)cc2)oc1O`, the “activity change, negative = inhibition” value was inactive: -2.96%. With `CC(=O)N(\C=C/C=C/C=C1\Sc2ccccc2C1=O)c1ccccc1` the Potency was inconclusive: 31.6 µM [inhibitor, single point]. `O=C(NC1(O)C(=O)c2ccccc2C1=O)c1ccccc1` was tested, and the Potency was inconclusive: 39.8 µM [inhibitor, single point]. `O=C(c1ccc2nc(-c3ccco3)c(-c3ccco3)nc2c1)N1CCN(c2ncccn2)CC1` was tested, and the Potency was inconclusive: 25.1 µM [inhibitor, partial curve]. With `CC(=O)c1ccc(N2CCN(S(=O)(=O)c3ccc(-c4cnc(C5CC5)o4)cc3)CC2)cc1` the Potency was inconclusive: 31.6 µM [inhibitor, single point]. In the case of `O=C(O)Cc1cccc(OCCCN(Cc2cccc(C(F)(F)F)c2Cl)CC(c2ccccc2)c2ccccc2)c1`, the Potency is reported as inconclusive: 39.8 µM [inhibitor, single point]. `Oc1ccc(C2=Nn3c(nnc3-c3ccco3)SC2)cc1O` was tested, and the Potency was inconclusive: 35.5 µM [inhibitor, single point]. `CCc1ccccc1NC(=O)c1ccc(-c2csc(C)n2)cc1` was tested, and the Potency was inconclusive: 2.82 µM [inhibitor, full curve, poor fit]. With `O=c1cc(-c2ccccc2)oc2cc(O)c(O)c(O)c12` the Potency was active: 15.8 µM. For `Cc1ccc(C2=NN(C(=O)CCC(=O)O)C(c3cn(-c4ccccc4)nc3-c3ccc(C)cc3)C2)cc1` (centres undefined), the Potency was inconclusive: 28.2 µM [inhibitor, single point]. For `COc1ccccc1/C=C/C=c1\sc2nc(=O)c(Cc3ccccc3)nn2c1=O`, the Potency was inconclusive: 12.6 µM [inhibitor, partial curve]. In the case of `COc1ccc(Cn2c(C3CCCCC3)nc3c(c(=O)c4ccccc4n3C)c2=O)cc1`, the Potency is reported as inconclusive: 3.98 µM [inhibitor, single point]. `O=c1c2c([nH]c3ccccc13)C(=C1CCCC1)CC2` was tested, and the Potency was inconclusive: 35.5 µM [inhibitor, single point]. With `O=C1CSC(=S)N1/N=C/c1ccc(Cl)c([N+](=O)[O-])c1` the Potency was inconclusive: 17.8 µM [inhibitor, partial curve]. For `Cc1cc(/C=C\c2ccc3cc(N(C)C)ccc3[n+]2C)c(C)n1-c1ccccc1`, the Potency was inconclusive: 10 µM [inhibitor, single point]. `COc1cc(/C=N/NC(=O)c2ccccc2O)ccc1OCC(=O)Nc1ccccc1` was tested, and the Potency was inconclusive: 28.2 µM [inhibitor, single point]. `CCCC[n+]1ccn(-c2nc3ccccc3nc2[N-]S(=O)(=O)c2ccc(Br)cc2)c1` was tested, and the Potency was inconclusive: 4.47 µM [inhibitor, full curve, poor fit]. For `CCCCn1c(/C=C/c2ccco2)nc2ccccc21`, the Potency was inconclusive: 12.6 µM [inhibitor, partial curve]. For `CCC1=NN2C(=N)/C(=C\c3ccc(OCc4cc(=O)n5nc(CC)sc5n4)c(OC)c3)C(=O)N=C2S1`, the Potency was active: 14.1 µM. For `Cc1cccc(-c2nc(SCC(=O)Nc3ccc4c(c3)OCO4)c(-c3ccccc3)[nH]2)c1`, the “activity change, negative = inhibition” value was inactive: -13.8%. With `O=C(O)CSc1cc(C(=O)c2ccccc2O)cn2c(=O)c3c4c(sc3nc12)CCCC4` the Potency was active: 25.1 µM. For `Cc1ccc2nc(Cl)c(/C=N/NC(=O)c3ccccc3O)cc2c1`, the Potency was inconclusive: 25.1 µM [inhibitor, single point]. For `O=C(O)C1C2CCC(O2)C1C(=O)Nc1ccc(O)cc1` (centres undefined), the Potency was inconclusive: 25.1 µM [inhibitor, single point]. In the case of `O=C(Nc1cccc(S(=O)(=O)N2CCOCC2)c1)c1c2c(nc3ccccc13)CCC2`, the “activity change, negative = inhibition” value is reported as inactive: -18.4%.
